The source gives no read counts; variants with many changes may rest on few reads.
B1: LINE1-full (parent)
chain: UACGUAGGUGGUUUUCCCCUGAUAGUGCUAAGGGGGCCUGGAAGUUUGGACUGGGCAGAGCUCAACACAGCGUGGCAAAGUGGCUGUGGCUAGACUGCCUCUCUGGAUUCCUCGUCACUCAGCAGGGCAUCUCUGAGAGAAAUGCC

Variants of: B1
Test: self-cleavage, relative activity (ratio to wild type); higher = more cleavage; in vitro, sequencing; the parent is a self-cleaving ribozyme
For UACGUAGGUGGUUUUCCCCUGAUAGUGCUAAGGGGGCCUGGAGGUUUGGACUGGGCUGAGCUCAACACAGCGUGGCAAAGUGGCUGUGGCUAGGCUGCCUCUCUGGAUUCCUCGUCACUCAGCAGGGCAUCUCUGAGAGAAAUGCC [A43G A57U A94G], the self-cleavage was 0. Variant UACGUAGGUGGUCUUCCCCUGAUAGUGCUAAGGGGGCCUGGAAGUUUGGACUGGGCAGAGCUCAACACAGCGUGGCAAAGUGGCUGCGGCUAGACUGCUUCUCUGGAUUCCUCGUCACUCAGCAGGGCAUCUCUGAGAGAAAUGCC [U13C U87C C99U] has a self-cleavage of 0.17. Variant UACGUAGGUGGUUUUCCCCUGAUAGAGCUAAGGGGGCCUGGAGGUUUGGACUGGGCAGAGCUCAACACAGCGUGGCAAAGUGGCUGUGGCUAGACUGCCUCUCUGGAUUCCUCGUCACUCAGCAGGGCAUCUCUGAGAGAGAUGCC [U26A A43G A141G] has a self-cleavage of 0.82. UACGUAGGUGGUUUUCCCCUGAUAGUGCUAAGGGGGCCUGAAAGUUUGGACUGGGCAGAGCUCAACACAGCGUGGCAAAGAGGCUGUGGCUAGACUGCCUCUCUGGAAUCCUCGUCACUCAGCAGGGCAUCUCUGAGAGAAAUGCC [G41A U81A U108A] showed a self-cleavage of 1.66. With UACGUAGGUGGUUUCCCCCAGAUAGUGCUAAGGGGGCCUGGAAGUUUGGACUGGGCAGAGCUCAACACAGCGUGGCAAAGUGGCUGUGGCUAGACUGCCACUCUGGAUUCCUCGUCACUCAGCAGGGCAUCUCUGAGAGAAAUGCC [U15C U20A U100A] the self-cleavage was 1.15. Work on UACGUAGGUGGUUUUCCCCUGAUAGCGCUAAGGGGGCCUGGAAGUUUGGACUGGGCAGAGCUCAACACAGCGUGGCAAAGUGGCUGUGGCUAGACUGCCUCUCUGGAUUCCUCGUCGCUCAGCAGGGAAUCUCUGAGUGAAAUGCC [U26C A117G C128A A138U] yielded a self-cleavage of 1.31. In the case of UACGUAGGUGGUUUUCCCCUGAUAGCGCUAAGGGGGCCUGGAAGUUUGGACUGGGCAGAGCUCUACACUGCGUGGCAAAGUGGCUGUGGCUAGGCUGCCUCUCUGGAUUCCUCAUCACCCAGCAGGGCAUCUCUGAGAGAGAUGCC [U26C A64U A69U A94G G114A U119C A141G], the self-cleavage is reported as 0.02. UACGUGGGUGGUUUUCCCCUGAUAGUGCUAAGGGGGCCUGGAAGUUUGGACUGGGCAGAGCUCAGCACAGCGUGGCUAAGUGGCUGUGGCUAGACUGCCUCUCUGGAUUCCUCGUCACUCAGCAGGGCAUCUCUGAGAGAAAUGCC [A6G A65G A77U] showed a self-cleavage of 0.12. Variant UACGUAGGUGGUUAUCCCCAGAUAGUGCUAAGGGGGCCUGGAAGUUUGGACUGGGCAGAGCUCAACACAGCGUGGCAGAGUGGCUGUGGCUAGACUGCCUCUAUGGAUUCCUCGUCACUCAGCAGGGCAUCUCUGAGAGAAAUGCC [U14A U20A A78G C103A] has a self-cleavage of 0.6. Work on UACGUAGGUGGUUUUCCCCUGAUAGUGCUAAGGGGGCCUGGAAGUUUGGACUGGGCAGAGCUCAACACAGCGAGGCAAAGUGGCUGUGGCUAGACAGCCUCUCUGGAUUCCUCGUCACUCAGCAGGGCAUCUCUGGGAGAAAUGCC [U73A U96A A136G] yielded a self-cleavage of 0.29. With UACGUAGAUGGUUUUCCCCUGAUAGUGCUAAGGGGGCCUGGAAGUUUGGACUGGGCAGAGCUCAACACAGCGUGGCAAAGUGGCUGUGGCUAGACUGCCUCUCUGGAUUCCUCGUCACGCAGCGGGGCAUCCCUGAGAGAAAUGCC [G8A U119G A124G U132C] the self-cleavage was 1.84. Work on UACGUAGGUGGUUUUCCCCUGAUAGUGCUAAGGGGGCCUGGGAGUUUGGACUGGGCAGAGCUCAACACAGCGUGGCAAAGUGGCUGUGGCUAGACUGCCUCUCUGGAUUCCUCGUCACUCAGCAGGGCAUCUCCGUGAGAAAUGCC [A42G U134C A136U] yielded a self-cleavage of 2.3. UACGUAGGUGGUUUUCCCCUGAUAGUGCUAAGUGGGCCUGGAAGUUUGGACUGGGCAGAGCUCAACACAGCGUGGCAAAGUGGCUGUGGCUAGACCGCCUCUCUGGAUUCCUCGUCACUCAGCAGGGCAUCUCUGGGAGAAAUGCC [G33U U96C A136G] gave a self-cleavage of 0.1. UACGUAGGUGGCUUUCCCCUGAUAGUGCUAAGGGGGCCUGGAAGUUUGGACUGGGCAGAGCUCAACACGGCGUGGCAAAGUGGCUGUGGCUGGACUGCCUCUCUGGAUUCCUCGUCACUCAGCAGGGCAUCUCUGAGAGAAAUGCC [U12C A69G A92G] gave a self-cleavage of 0. UACGUAGGUGGUUUCCCCCUGAUAGUGCUAAGGGGGCCUGGAAGUUAGGACUGGGCAGAGCUCAACACAGCGUGGCAAAGUGGCUGUGGCUAGACUGCCUCUCUGGAUUCCUCGUCACUCAGCAGGGCAUCUCUGAGAGAACUGCC [U15C U47A A142C] gave a self-cleavage of 1.51. Variant UACGUAGGUGGUUUUCCCCUGAUAGUGCUAAGGGGGCCUGGAAGCUUGGACUGGGCAGAGCUCAACACAGCGUGGCAAAGAGGCUGUGGCUAGCCUGCCUCUCUGGAUUCCUCGUCACGCAGCAGGGCAUCUCUGAGAGAAAUGCC [U45C U81A A94C U119G] has a self-cleavage of 0. UACGUAGGCGGUUUUCCCCUGAUAGUGCUAAGGGGGCCUGGAAGUUUGGACUGGGCAGAGCCCAACACAGCGUGGCAAAGUGGCUGUGGCUAGACUGCCUCUCUGGAUUCCACGUCACUCAGCAGGGCAUCUCUGAGAGAAAUGCC [U9C U62C U112A] gave a self-cleavage of 0.12. UACGUAGGUGGUUUUCCCCUGAUAGUGCUAAGGGGGCCUGGAAGUUCGGACUGGGCAGAGCUCAACACAGCGUGGCAAAGUGGCUGUGGCUAGACUGCCUCUCUGGGUUCCUCGUCACUCAGCAGGGCAUCUCUGGGAGAAAUGCC [U47C A107G A136G] gave a self-cleavage of 1.36. With UACGUUGCUGGUUUUCCCCUGAUAGUGCUAAGGGGGCCUGGAAGUUUGGACUGGGCAGAGCUCAACACAGCGUAGCAAAGUGGCUGUGGCUAGACUGCCUCUCUGGGUUCCUCGUCACUCAGCAGGGCAUCUCUGAGAGAAGUGCC [A6U G8C G74A A107G A142G] the self-cleavage was 1.41. In the case of UACGUAGGUGGUUUUCCCCUGAUAGUGCUAGGGGGGCCUGGAAGUUUGGACUGGGGAGAGCUCAACACAGCGUAGCAAAGUGGCUGUGGCUAGACUGCCUCUCUGGAUUCCUCGCCACUCAGCAGGGCUUCUCUGAGAGAAAUGCC [A31G C56G G74A U115C A129U], the self-cleavage is reported as 0.04. Variant UACGUAGGUGGAUCUCCCCUGAUAGUGCUAAGGGGGCCUGGAAGUUUGGACUGGGCAGAGCUCAGCACAGCGUGGCAAAGUGGCUGUGGCUAGACUGCCUCUCUGGAUUCCUCGUCACUCAGCAGGGCAUCUCUGAGAGAAAUGCC [U12A U14C A65G] has a self-cleavage of 0.34. UACGUAGGUGGUUUUCCCCUGAUAGCGCUAAGGGGGCCUGGAAGUUCGGACUGGGCAGAGCUCAACACAGCGUGGCAAAGUGGCUGUGGCUUGACUGCCUCCCUGGAUUCCUCGUCACUCAGCAGGGCAUCUCUGAGAGAAAUGCC [U26C U47C A92U U102C] showed a self-cleavage of 0.54. In the case of UACGUAGGUGGUUUUCCCCCGAUAGUGCUAAGGGGGCCUGGAAGUUUGGACCGGGCAGAGCUCAACACAGCGUGGCAAAGUGGCUGUGGCUAGACUGCCUCUCUGGAUUCCUCGUCACUCAGCAGGGCACCUCUGAGAGAAAUGCC [U20C U52C U130C], the self-cleavage is reported as 0. In the case of UACGUAGGUGGUUUUCCCCUGAUAGUGCUAAGGGGGCCUGGAAGUUUGGACUGGGCAGAGCUCAACACAGUGUGGCAAAGUGGCUGUGGCUAGACUGCCUCUCUGGAUUCCUCGCCACUCAGCGGGGCAUCUCUGAGAGAAAUGCC [C71U U115C A124G], the self-cleavage is reported as 0.2. With UACGUAGGCGGUUUUCCCCUGAUAGUGCUAAGGGGGCCUGGAGGUUUGGACUGGGCAGAGCUCAACACAGCGUGGCAAAGUGGCUGUGGCUAGACUGCCUCUCUGGUUUCCUCGUCACUCAGCAGGGCAUCUCUGAGAGAAAUGCA [U9C A43G A107U C146A] the self-cleavage was 1.51. In the case of UACGUAGGUGGUUUUCCCCUGAUAGUGCUAAGGGGGCCUGGAGGAUUGGACUGGGCAGAGCACAACACAGCGUGGCAAAGUGGCUGUGGCUAGACUGCCUCUCUGGAUUCCUCGUCACUCAGCAGGGCAUCUCUGAGAGAAAUGCC [A43G U45A U62A], the self-cleavage is reported as 0.06. In the case of UACGUAGGUGGUUUUCCCCUGAUAGUGCUAAGGGGGCCUGGAAGUUUGGACUGGGUAGAGCUCAACACAGCGUGGCAAAGUGGCUGCGGCUAGACUGCCUCUCUGGAUUCCACGUCACUCAGCAGGGCAUCUCUGAGAGAAAUGCC [C56U U87C U112A], the self-cleavage is reported as 0.02. Variant UACGUAGGUGGUUUUCCCCUGAUAGUGCUUAGGGGGCCUGGAAGUUUGGACUGGGCAGAGCUCAACACAGCGUGGCUAAGUGGCUGUGGCUAGACUGCCUCUCUGGAUUCCUCGUCUCUCAGCAGGGCAUCUCUGAGAGAAAUGCC [A30U A77U A117U] has a self-cleavage of 0.71. Work on UACGUAGGUGGUUUUCCCCUGAUAGGGCUAAGGGGGCCUGGAGGUUUGGACUGGGCAGUGCACAACACAGCGUGGCGAAGUGGCUGUGGCUAGACUGCCUCUCUGGAUUCCUCGUCACUCAGCAGGGCAUCUCUGAGGGUAAUGCC [U26G A43G A59U U62A A77G A138G A140U] yielded a self-cleavage of 0.14. Work on UUCGUAGGUGGUUUUCCCCUGAUAGUGCUAAGGGGGCCUGGAGGUUCGGACUGGGAAGAGCUCAACACAGCGUGGCAAAGUGGCUGUGGCUAGACUGCCCCUCUGGAUUCCUCGUCACUCAGCAGGGCAUCUCUGAGAGAAAUGCC [A2U A43G U47C C56A U100C] yielded a self-cleavage of 0.11. For UACGUAGGUGGUUUUCCCCUGAUAGUGCUAAGGGGGCCAGGAAGUUUGGGCUGGGCAGAGCUCAACACAGCGCGGCAAAGUGGCUGUGGCUAGACUGCCUCUCUGGAUUCCUCGUCACUCAGCAGGGCAUCUCUGAGAGAAAUGCC [U39A A50G U73C], the self-cleavage was 1.23. Variant UACGUAGGUGGUCUUACCCUGAUAGUGCUAAGGGGGCCUGGAAGUUUGGACUGGGCAGAGCUCGACACAGCGUGGCAAAGUGGCUGUGGCUAGACUGCCUCUCUGGAUUCCUCGUCACUCAGCAGGGCAUCUCUGAGAGAAAUGCC [U13C C16A A64G] has a self-cleavage of 0. For UACGUAGGUGGUUUUCCCCUGAAGGUGCUAAGGGGGCCUGGAAGCUUGGACUGGGCAGAGCUCAACACAGCGUGGCAAAGUGGCUGUGGCUAGACUGCCUCUCUGGGUUCCUCGUCACUCAGCAGGGCAUCUCUGAGAGAAAUGCC [U23A A24G U45C A107G], the self-cleavage was 1.67. Variant UACGUAGGUGGUUUUCCCCUGAUAGUGCUAUGGGGGCCUGGAAGUUUGGACUGGGCAGGGCUCAACACAGCGUGGCAAAGUGGCUGUGGCUAGACUGCCUCUCUGGAUUCCUCGUCACUCAGCAGGGCAUCUCUGGGAGAAAUGCC [A31U A59G A136G] has a self-cleavage of 0.17. For UACGUAGGUGGUUUUCCCCUGAUAGUGCUGAGGGGGCCUGGAAGUUUGGACUGGGCAGAGCUCAACACAGCGUGGCAAAGUGGCUGUGGCUAGACUGCCUCUCUGGAUUCCUCGUCGCUCAGCAGGGCAUCUCUGAGAGAGAUGCC [A30G A117G A141G], the self-cleavage was 0.66. Variant UACGUAGGUGGUUCUCCCCUGAUAGUGCUAAGGAGGCCUGGAAGUCUGGACUGGGCAGAGCUCAACACAGCGUGGCAAAGUGGCUGUGGCUAGACUGCCUCUCUGGAUUCCUCGGCACUCAGCAGGGCAUCCCUGAGAGAAAUGCC [U14C G34A U46C U115G U132C] has a self-cleavage of 1.84. With UACGUAGGUGGUUUUCCCCUGAUAGUGCUAAGGGGGCCUGGAAGUUUGGACUGGGCUGAGCUCAACACAGCGUGGCAAAGUGGCUGUGGCUAGACUGCCUCACUGGAUUCCUCGUCACUCGGCGGGGCAUCUCUGAGAGAGAUGCC [A57U U102A A121G A124G A141G] the self-cleavage was 0. In the case of UGCGUAGGUGGUUUUCCCCUGAUAGUGCUAAGGGGGCCUGGAAGUUUGGACUGGGCAGAGCUCAUCACAGCGUGGCAAAGAGGCUGUGGCUAGACUGCCUCUCUGCAUUCCUCGUCACUCAGCAGGGCAUCUCUGAGAGAAAUGCC [A2G A65U U81A G106C], the self-cleavage is reported as 0.06. Work on UACGUAGGUGGUUUUCCCCUGGUAGUGCCAAGGGGGCCUGGAAGUUUGGACUGGGCAGAGCUCAACACAGCGUGGCAAAGUGGCUGUGGCUAGACUGCCUCUCUGGAUUCCUCGACACUCAGCAGGGCAUCUCUGAGAGAAGUGCC [A22G U29C U115A A142G] yielded a self-cleavage of 1.1.
